Experimental data: paper PMC4336329 (PLoS ONE, 2015)
Among all 310,000 compounds or so, about 2,200 (0.71%) showed an effect of 50% or more. The effect is printed as a negative number. This is one part of the list.

Biological target: human ether-à-go-go-related gene (hERG) potassium channel (human, UniProt Q12809)
Assay: primary screen, population patch clamp on CHO cells stably expressing hERG

Sequence of human ether-à-go-go-related gene (hERG) potassium channel (Q12809 whole entry, looked up): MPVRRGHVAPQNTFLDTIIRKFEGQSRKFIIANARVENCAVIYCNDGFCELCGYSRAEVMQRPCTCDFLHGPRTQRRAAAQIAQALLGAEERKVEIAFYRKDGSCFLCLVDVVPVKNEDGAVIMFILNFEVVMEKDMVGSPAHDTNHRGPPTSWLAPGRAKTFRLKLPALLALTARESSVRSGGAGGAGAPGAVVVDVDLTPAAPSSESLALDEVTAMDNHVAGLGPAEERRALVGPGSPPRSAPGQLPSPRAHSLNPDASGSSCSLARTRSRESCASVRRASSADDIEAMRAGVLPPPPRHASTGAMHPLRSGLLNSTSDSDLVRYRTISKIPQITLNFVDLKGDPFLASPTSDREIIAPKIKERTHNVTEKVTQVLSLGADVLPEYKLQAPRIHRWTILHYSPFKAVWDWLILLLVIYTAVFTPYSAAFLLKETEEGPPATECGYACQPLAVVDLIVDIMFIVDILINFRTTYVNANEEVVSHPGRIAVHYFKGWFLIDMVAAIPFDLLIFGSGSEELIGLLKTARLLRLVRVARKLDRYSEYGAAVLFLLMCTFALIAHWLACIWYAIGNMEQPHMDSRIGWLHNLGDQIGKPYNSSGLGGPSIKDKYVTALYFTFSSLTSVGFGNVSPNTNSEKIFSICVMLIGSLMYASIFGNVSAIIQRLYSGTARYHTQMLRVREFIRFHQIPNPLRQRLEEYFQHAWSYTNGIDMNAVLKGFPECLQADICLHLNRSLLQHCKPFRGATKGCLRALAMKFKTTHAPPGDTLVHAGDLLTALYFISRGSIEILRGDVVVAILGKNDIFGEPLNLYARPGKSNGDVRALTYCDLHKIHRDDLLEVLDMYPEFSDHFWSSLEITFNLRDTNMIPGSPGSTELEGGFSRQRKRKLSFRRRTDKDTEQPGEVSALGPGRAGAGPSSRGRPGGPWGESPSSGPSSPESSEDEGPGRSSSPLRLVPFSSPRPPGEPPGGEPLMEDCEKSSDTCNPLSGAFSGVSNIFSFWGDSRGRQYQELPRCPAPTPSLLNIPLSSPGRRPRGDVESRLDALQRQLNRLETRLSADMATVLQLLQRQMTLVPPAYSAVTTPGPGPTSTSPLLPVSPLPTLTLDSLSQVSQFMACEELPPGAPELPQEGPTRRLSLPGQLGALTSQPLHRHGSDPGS

SMILES	hERG current change (%, negative = inhibition) at 1uM
Cl.Fc1ccc(CNC2CN3CCC2CC3)cc1 (stereo not shown)	9.29%
S=C(NC1CCCCC1)N1CCc2[nH]c3ccccc3c2C1	13.5%
CCN(CC)C(=O)CSc1nnc(CNc2ccc(F)cc2)o1	15.6%
Cn1c(SCc2cccc(Br)c2)nnc1-c1ccncc1	6.77%
Cn1c2c(c(=O)n(C)c1=O)CN(CC1CCCO1)CN2 (stereo not shown)	7.48%
Brc1ccc(CN2C3=NCCCN3c3ccccc32)cc1.Cl	-55.6%
NC(N)=NC1=NC(=O)/C(=C/c2ccccc2-n2cccn2)S1	13.3%
CCC1=C(OC(=O)N(CC)CC)N2C(=O)OC(=NCCc3c[nH]c4ccccc34)[C@]2(Cc2ccccc2)[C@H]2C1=CC[C@H]1C(=O)N(CC)C(=O)[C@H]12	13.8%
Clc1ccccc1C(c1ccccc1)(c1ccccc1)n1ccnc1	9.51%
COCCNc1oc(-c2ccccc2Cl)nc1C#N	-5.23%
COc1ccc(C2N(c3ccccc3)C(=O)C2(F)F)cc1OC (stereo not shown)	10%
O=C(COc1ccc2ccccc2c1)Nc1ccccc1C(=O)O	22.5%
C=CCNC(=O)c1ccc([N+](=O)[O-])c(Cl)c1	3.42%
Cc1ccc(C)c(Cn2cnc3c(oc4ccccc43)c2=O)c1	8.87%
O=C(Nc1ccc2oc(-c3ccccc3Cl)nc2c1)c1ncn[nH]1	4.01%
CCOC(=O)CC1=C(C(=O)OCC)C(c2cc(OC)c(OC)cc2OC)C(C#N)=C(N)O1 (stereo not shown)	5.76%
CCN1CCCC1CNCc1ccc(OCc2ccc(Cl)nc2)c(OC)c1.Cl (stereo not shown)	-2.56%
O=C(Nc1cc(=O)[nH]c2ncnn12)c1ccco1	14.2%
Cc1cccc(C)c1OCCN1CCCC1	12.3%
COC(=O)[C@]1(CC(C)C)N[C@H](c2ccc(-c3ccc(Cl)c(Cl)c3)cc2)[C@@H]2C(=O)N(C)C(=O)[C@@H]21.O=C(O)C(F)(F)F	11.3%
COc1ccc(OC)c(NC(=O)CC2C(=O)NCCN2C(=O)Nc2cccc(Cl)c2)c1 (stereo not shown)	5.49%
Cc1ccc(S(=O)(=O)N(C)CC(=O)OCC(=O)N2CCCC2=O)cc1	7.55%

SMILES	hERG current change (%, negative = inhibition) at 1uM
O=C(C1Cc2ccccc2CN1S(=O)(=O)c1cccs1)N1CCCCC1 (stereo not shown)	3.1%
O=C(O)CCCC(=O)N1N=C(c2ccccc2)CC1c1cccs1 (stereo not shown)	1.73%
Cc1ccc(S(=O)(=O)N/N=C\c2ccc(C)o2)cc1	8.41%
COc1cccc(NC(=O)c2nnn(CC(=O)Nc3cc(C)cc(C)c3)c2N)c1	12.5%
CCOCC(=O)Nc1nnc(C)s1	11.7%
CCCCCN(C(=O)CCC(=O)OCC(=O)NCc1cccc(OC)c1)c1c(N)n(CCCC)c(=O)[nH]c1=O	0.573%
O=C(Cn1c2c(c(=O)n3ncnc13)CCC2)N/N=C/c1ccc(Cl)cc1	9.25%
COC(=O)c1cccc(NC(=O)c2cc(OC)c(OC)c(OC)c2Br)c1	11.3%
CC(NC(=O)c1ccc(N(C)C)c([N+](=O)[O-])c1)c1ccc(-n2ccnc2)cc1 (stereo not shown)	-2.05%
Cc1ccc(Cn2c(C(C)Nc3nc(-c4ccc(Cl)c([N+](=O)[O-])c4)cs3)nc3cc(C(F)(F)F)ccc32)cc1 (stereo not shown)	7.11%
CCN1C(=O)c2ccccc2Sc2ccc(C(=O)NCCCN3CCCCC3)cc21	3.53%
O=C(NCc1ccc2c(c1)OCO2)c1nnc(Cc2ccc(Cl)cc2)o1	10.1%
CCOc1ccc(S(=O)(=O)N(CC(=O)N/N=C/c2ccc(-c3ccc([N+](=O)[O-])cc3)o2)c2ccccc2)cc1	-1.72%
NC(=O)c1ccc(NC(=O)CNCc2ccccc2Cl)cc1	13.1%
CC(=O)c1ccc(NC(=O)C2(c3ccccc3)CCOCC2)cc1	10.2%
CCCOc1ccc(C(=O)NCCc2ccccc2)cc1	-2.39%
COc1ccc(C(CC(=O)N2CCCCC2)c2c(OC)cc(OC)c3ccc(=O)oc23)cc1 (stereo not shown)	16.8%
Cc1ccnc(NC(=O)c2cc3c(=O)oc4ccc(C)cc4c3s2)c1	12.9%
COc1ccc(/C=N/n2c(C)cc(C)c(C(N)=O)c2=O)cc1	13.2%
COc1cc(/C=C/C(=O)NC(=O)c2ccccc2O)ccc1O	9.8%
COC(=O)c1ccc(COC(=O)CNS(=O)(=O)c2ccc(C)cc2)cc1	12.4%
COc1ccc(C(=O)NCc2nc(C)c(C)s2)cc1OC1CCN(C(C)C)CC1	15.3%

SMILES	hERG current change (%, negative = inhibition) at 1uM
COc1ccc(S(=O)(=O)N2CCCCC2)cc1NCC(=O)Nc1ccc(C)cc1	12.6%
COC(=O)c1cc(C(=O)N2CCN(c3ncccn3)CC2)cc([N+](=O)[O-])c1	4.57%
O=C(CSc1nnc2c(n1)[nH]c1ccccc12)NC1CCCCC1	8.34%
O=C(CCNC(=O)c1ccc(Br)cc1)Nc1ccccc1N1CCCCC1	9.7%
CC1(C)C2CC=C(/C=N/NC(=S)NCCc3ccccc3)C1C2 (stereo not shown)	8.68%
COc1cccc(C(=O)NCc2ccc3c(c2)OCO3)c1OC	13.7%
CCN1CCN(C(=O)c2ccc(CN(c3ccccc3)S(=O)(=O)c3ccccc3)cc2)CC1	-9.8%
CCOc1ccc(NC(=O)CSc2nnc(-c3ccoc3C)n2CC2CCCO2)cc1 (stereo not shown)	2.35%
COc1ccccc1NS(=O)(=O)c1cc(NC(=O)c2ccco2)ccc1N1CCOCC1	9.3%
CN(C)CCCNc1ncnc2c1c(-c1ccccc1)cn2-c1ccccc1	-18.2%
O=C(CCS(=O)(=O)c1ccc(Br)s1)Nc1ccccc1Br	7.6%
O=C(Nc1ccccc1)Nc1ccc2nnsc2c1	5.61%
O=C(NCC(c1ccco1)N1CCN(c2ccccc2)CC1)c1ccc2c(c1)OCO2 (stereo not shown)	4.24%
CC1CN(C2=NC(=O)/C(=C/c3ccncc3)S2)CC(C)O1 (stereo not shown)	2.25%
COc1ccc(CCNC(=O)c2ccc(Cl)cc2Cl)cc1OC	-3.17%
CCC(=O)Nc1ccc(NC(=O)c2ccccc2Cl)nc1	11.6%
CCOC(=O)CCn1c(=O)c2c(nc(Br)n2Cc2ccccc2)n(C)c1=O	-0.0932%
CC12CN3CC(C)(CN(C1)C3c1ccco1)C2=O (stereo not shown)	4.46%
CCc1c(O)nc(SCC(=O)NC(C)(C)C)n(-c2ccccc2)c1=O	6.69%
O=C(CN1C2CCCC1CC(NC(=O)c1ccco1)C2)Nc1ccccc1C(F)(F)F (stereo not shown)	0.252%
Cc1ccc2c(c1)c1c(n2C)C(C(N)=O)CCC1 (stereo not shown)	-10.2%
CCc1cccc2c(=O)c(C(=O)NCCN3CCOCC3)c[nH]c12	16.1%

SMILES	hERG current change (%, negative = inhibition) at 1uM
Cc1ccc(OCc2nc(-c3ccccc3)no2)c(C)c1	1.61%
CCOC(=O)CC1C(=O)NCCN1C(=O)c1cccc(C(F)(F)F)c1 (stereo not shown)	13%
COc1ccc(NC(=O)CN2CCC(C)CC2)cc1	-0.0667%
Cc1cc(S(=O)(=O)N2CCN(C(=O)CCC(=O)N3CCOCC3)CC2)ccc1Br	10.9%
Cc1[nH]c(N=Nc2ccccc2)nc1N=Nc1ccccc1	16.5%
CC1(C(=O)Nc2nccs2)Cc2ccccc2C(=O)O1 (stereo not shown)	-3.57%
NS(=O)(=O)c1ccc(CCNC(=O)c2ccccc2OCc2ccc(F)cc2)cc1	13.8%
O=C(NCc1ccccc1)c1cccc(COc2cc(Cl)ccc2Cl)c1	13.9%
Cc1nn(CC(=O)Nc2cccnc2)c(C)c1[N+](=O)[O-]	11.5%
CCOCCCNC(=O)C1CCN(C(=O)Nc2ccc(C)cc2)CC1	2.66%
COc1ccc(Cl)cc1N(CC(=O)N1CCCCC1)S(C)(=O)=O	19%
CS(=O)(=O)Nc1ccc(S(=O)(=O)N2CCOCC2)cc1	8.65%
CCCCN(CC)C(=O)CN(C)S(=O)(=O)c1cccc2nsnc12	9.78%
C/C(=N/NC(=O)c1nnn(-c2nonc2N)c1-c1ccccc1)c1ccc2c(c1)OCO2	14.8%
CCN(C(=O)COC(=O)c1ccc(Br)o1)C1CCCCC1	8.75%
CC1CC(C)CN(C(=O)C2CCCN(S(=O)(=O)c3cnc[nH]3)C2)C1 (stereo not shown)	2.33%
CC1CN(C(=O)c2ccc(NS(=O)(=O)c3ccc(F)cc3)cc2)CC(C)O1 (stereo not shown)	12.6%
CCCCSC(=O)Nc1ccccc1	4.75%
C=CCn1c(SCC(=O)OC)nc2sc3c(c2c1=O)CCN(C)C3	-6.47%
COc1ccc(N(C(=O)Cn2nnc(-c3ccccc3F)n2)C(C(=O)NCC2CCCO2)c2ccc(Cl)cc2)cc1 (stereo not shown)	16%
CC(C)Cc1nnc(NC(=O)CCC(=O)NCCc2ccccc2)s1	11.9%
CSc1ccccc1C(=O)N1CCCC(CCC(=O)NCc2ccc(F)c(F)c2)C1 (stereo not shown)	13.9%
